Experimental data reported in the RNAGym collection of RNA variant scans (doi:10.1093/nar/gkz1192).
The source gives no read counts; variants with many changes may rest on few reads.

B1: CPEB3 Ribozyme (parent)
chain: UAACAGGGGGCCACAGCAGAAGCGUUCACGUCGCAGCCCCUGUCAGAUUCUGGUGAAUCUGCGAAUUCUGCUGUAUAUCUC

Variants of: B1
Assay: self-cleavage, relative activity (ratio to wild type); higher = more cleavage; in vitro, sequencing
Outline: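 Libraries of CPEB3 self-cleaving ribozyme mutants came from rounds of error-prone PCR and carried barcodes, which DNA sequencing matched to variants. In vitro transcription used T7 RNA polymerase at 37°C for 5 hours, with a further 15 min in DNase I before EDTA stopped the reaction; the ribozymes cleaved during both steps. The RNA was reverse transcribed with template switching and sequenced on Illumina. Relative activity is the cleaved/total read fraction of a variant divided by that of the unmutated ribozyme, averaged over three batches with at least 5 reads.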
A35G U60C U69A U76A gave a self-cleavage of 0.56.
For C39A U48C A64G, the self-cleavage was 0.15.
Work on A35U A56U U67C yielded a self-cleavage of 0.18.
Variant A35G U43C U49G U76C has a self-cleavage of 0.92.
With C39A G52C A56G the self-cleavage was 0.17.
Work on G36U C40U U54C A64G C71G U76A yielded a self-cleavage of 0.05.
In the case of C38U C40U U54A A64G U67C, the self-cleavage is reported as 0.18.
Variant A35C A45C U51C U66C has a self-cleavage of 0.12.
Variant C40U U41A U51A U80C has a self-cleavage of 0.13.
With C34U U58C A64G the self-cleavage was 0.1.
For C39G U43C A47G U66C U72C A77U, the self-cleavage was 0.23.
In the case of C40A U49A U72C U76C, the self-cleavage is reported as 0.22.
For C40U A45G U69A U78C, the self-cleavage was 0.26.
Work on C39A A64U U72A yielded a self-cleavage of 0.13.
A35G C40G A45G U60C U74C A75G gave a self-cleavage of 0.53.
Variant A35U G36C U43A A47G U49C has a self-cleavage of 0.06.
A35G A45U C68U U69A A75U gave a self-cleavage of 0.54.
Variant C38U U67A U72C A75G has a self-cleavage of 0.22.
In the case of A35U C40A A65G U66A, the self-cleavage is reported as 0.16.
Work on A35G C39A A57G yielded a self-cleavage of 0.55.
In the case of C39A U51C U69C C71U, the self-cleavage is reported as 0.12.
Variant C34U A35G U51C U78C has a self-cleavage of 0.1.
Work on A35U C37U U43C A75G yielded a self-cleavage of 0.1.
With C39A U51C U72C the self-cleavage was 0.43.
In the case of C38U A45G A64U, the self-cleavage is reported as 0.15.
Variant C39G U41C U67A has a self-cleavage of 0.22.
In the case of C38A U41A U66C, the self-cleavage is reported as 0.42.
Work on U41A A45G U49C U80C yielded a self-cleavage of 0.08.
In the case of G36A U41A U60A C68U, the self-cleavage is reported as 0.1.
A35G A45G A47G U66A showed a self-cleavage of 0.87.
A35G U41A A56G U76A showed a self-cleavage of 0.28.
For C37U A45U U78C, the self-cleavage was 0.27.
C39U A47G U48C showed a self-cleavage of 0.21.
In the case of A35U U41C A45G, the self-cleavage is reported as 0.36.
For A35C C37U U41A G61A, the self-cleavage was 0.13.
For A35G U41A U51C, the self-cleavage was 0.16.
C38U C39U U43C A57G C71A gave a self-cleavage of 0.06.
For C37U U43C U76C U80C, the self-cleavage was 0.12.
With C39U A65C U76C the self-cleavage was 0.15.
C38U U43C U49A U67C showed a self-cleavage of 0.07.
With A35U C38A U80C the self-cleavage was 0.3.
For A35U U48C A77G, the self-cleavage was 0.12.
A35G G55U U60C U66C U72A gave a self-cleavage of 0.67.
Variant C39A U49C A64U has a self-cleavage of 0.14.
Variant A35G U54C A64U has a self-cleavage of 1.19.
Work on A35U A45U G63U U74C yielded a self-cleavage of 0.4.
For A35U U41A A45C C71G U72A, the self-cleavage was 0.07.
Variant C40A A47G U69A has a self-cleavage of 0.13.
C40U A47U U49C gave a self-cleavage of 0.45.
Variant A35G U41A C62U U78C has a self-cleavage of 0.15.
For A35G U67A U78C, the self-cleavage was 1.24.
Work on A35C U54C A64G yielded a self-cleavage of 0.45.
With C39A U43C A77U the self-cleavage was 0.42.
Variant C39U U58A C59U has a self-cleavage of 0.17.
For A35G U69A U72C, the self-cleavage was 1.1.
Variant A35G U72C U74C has a self-cleavage of 1.39.
A35G U49C U51A G53A A57U gave a self-cleavage of 1.18.
C39U U43C A65G gave a self-cleavage of 0.16.
A35G A45U A77G gave a self-cleavage of 1.25.
For U41A A65G U72C U74C, the self-cleavage was 0.21.
For C38A U51C U54C, the self-cleavage was 0.15.
Variant C38U A45G U49C A77U has a self-cleavage of 0.25.
With A35U U43A U67C the self-cleavage was 0.32.
Work on A35U A56U G63A yielded a self-cleavage of 0.25.
For A35U C40A U51C U69C, the self-cleavage was 0.05.
A35G U43A U51A gave a self-cleavage of 1.29.
With A35G U43G A56U A64U A77U the self-cleavage was 0.06.
With A35U U60G U66C G73A the self-cleavage was 0.21.
A35G A47G C81A gave a self-cleavage of 1.51.
In the case of A35U A75G U80A, the self-cleavage is reported as 0.44.
C37U A45G U69A A77G showed a self-cleavage of 0.07.
In the case of C37U G42C U66C, the self-cleavage is reported as 0.1.
A35U U41C A65G U67C gave a self-cleavage of 0.12.
Variant U41A C50A A56G has a self-cleavage of 0.11.
Variant C39A U43C U78C has a self-cleavage of 0.17.
With A35G U54C U60C the self-cleavage was 1.09.
Work on A35G U54C U60G yielded a self-cleavage of 1.18.
In the case of A35U U54C U72C U76C, the self-cleavage is reported as 0.08.
Variant C40A A45G U51C U66C has a self-cleavage of 0.13.
Variant A35G U43A U48C U54A has a self-cleavage of 1.25.
With C37U U43C G73A the self-cleavage was 0.85.
With C40U U41C U72C the self-cleavage was 1.07.
With A35U U67A U72C the self-cleavage was 0.14.
In the case of A35U U51A A65G U72A U78C U80C, the self-cleavage is reported as 0.14.
A35C A57U A64G A65U showed a self-cleavage of 0.13.
For A35U A57G U72C, the self-cleavage was 0.54.
A35G U58G A65G U66C gave a self-cleavage of 0.41.
Variant A35G C39U U51A U60C U66A has a self-cleavage of 0.23.
C38U A45G A75G U80C gave a self-cleavage of 0.17.
For C37G A65G U80A, the self-cleavage was 0.51.
For G36C U41A A65G, the self-cleavage was 0.17.
With C40U C44U A75G U78C the self-cleavage was 0.11.
For A35G U43C U49A U54A, the self-cleavage was 0.93.
A35G U41A G52U C68G showed a self-cleavage of 0.18.
For C34U A75U U80C, the self-cleavage was 0.43.
A35U U41A A64U G70A showed a self-cleavage of 0.15.
Work on A35G G42U U43C yielded a self-cleavage of 0.22.
C37U A64G U69A A77G showed a self-cleavage of 0.14.
For A35U U54A A56U U72A, the self-cleavage was 0.14.
A35G U43C U54A G61U A64G U72C gave a self-cleavage of 0.52.
For A35G A56U U60A, the self-cleavage was 0.89.
Work on A35U G53U A57G A65G U74C yielded a self-cleavage of 0.35.
With A35U G53A A65G the self-cleavage was 0.14.
A35C A47G U60C showed a self-cleavage of 0.28.
For A35U A65U C68G, the self-cleavage was 0.12.
For A35U U66A U78A, the self-cleavage was 0.14.
In the case of U41A A47G A56U A77G, the self-cleavage is reported as 0.1.
In the case of C39A U43A U49C U69G, the self-cleavage is reported as 0.06.
Variant A35G U48C U49C U74C has a self-cleavage of 1.09.
Variant C38U A45G A65G U67C A77G has a self-cleavage of 0.09.
Work on U41A A47G U69C yielded a self-cleavage of 0.21.
In the case of A35U A45U U51A C71G, the self-cleavage is reported as 0.11.
Work on A35G U49C G53A U78A yielded a self-cleavage of 1.15.
Work on A35C U48A C50U yielded a self-cleavage of 0.32.
A35G A45U A47U U54C U80A showed a self-cleavage of 0.84.
For G36U U51A U72A U80C, the self-cleavage was 0.18.
C39A U67C A77U showed a self-cleavage of 0.08.
Work on U41A A56G C62U U67G yielded a self-cleavage of 0.3.
For C40U A47U A57G, the self-cleavage was 0.09.
Work on A35G G36A A47G A64C yielded a self-cleavage of 0.08.
Variant A35G U60C U72C has a self-cleavage of 1.19.
C38A U43A U49C showed a self-cleavage of 0.06.
Work on C40A A56G A77U yielded a self-cleavage of 0.09.
C37A A65G U67C gave a self-cleavage of 0.14.
A35G U41A G63U gave a self-cleavage of 0.32.
A35G U41C A65G U69C U72C showed a self-cleavage of 0.83.
Variant C39U G46A U54A U58C A64G has a self-cleavage of 0.06.
U41A A56U A57G showed a self-cleavage of 0.16.
Variant A35G U69C U76C has a self-cleavage of 1.01.
In the case of A35C U51C U60C, the self-cleavage is reported as 0.24.
C40G A45G U49C U72C gave a self-cleavage of 0.13.
C37U A45G U54C C81A gave a self-cleavage of 0.49.
C39G U41C A57G showed a self-cleavage of 0.75.
A35G U43C A45G U60C U74A U80C gave a self-cleavage of 1.29.
With C38U C39A U43C G52C U58C the self-cleavage was 0.16.
Work on A35U A47G A64U U74A yielded a self-cleavage of 0.14.
In the case of C34U A35G U67C U72A, the self-cleavage is reported as 0.09.
G36A A47U U76C gave a self-cleavage of 0.42.
Work on C34U U54A U60C U69C U78A C81G yielded a self-cleavage of 0.17.
A35U U43C A47U U51A A56C gave a self-cleavage of 0.15.
Work on C37U G42U A47G U48C yielded a self-cleavage of 0.14.
In the case of A35U G36C A56G A75U, the self-cleavage is reported as 0.11.
For A35U A47G U58C U66C, the self-cleavage was 0.15.
With C39U A56G A57U U58C A64G U74C the self-cleavage was 0.06.
A35G A56U U66A gave a self-cleavage of 1.08.
In the case of A35G G52U A57G A64G, the self-cleavage is reported as 1.31.
A35G A45U U54C showed a self-cleavage of 1.24.
Variant C34U U48C U66C U69A U78A has a self-cleavage of 0.13.
Variant A35C U43A U51C A65U U66C has a self-cleavage of 0.33.
C40U A45U U60A U69G showed a self-cleavage of 0.29.
In the case of A35U U43A U48G, the self-cleavage is reported as 0.22.
In the case of C40A A56U A57G G70C, the self-cleavage is reported as 0.08.
C39U U41A A57G U60A A64G U67C U74A showed a self-cleavage of 0.07.
C40U U41C A65U gave a self-cleavage of 0.31.
Work on A35G G42A U72C yielded a self-cleavage of 0.7.
Variant C37A U49C U58A U66C A75G U80C has a self-cleavage of 0.03.
Variant A35G U41A G63A U72C A75G U80C has a self-cleavage of 0.21.
Variant A35G U48C G55C has a self-cleavage of 1.11.
A35U A64G U74C gave a self-cleavage of 0.48.
Variant A35U U41A U43C G46U U48C A77U has a self-cleavage of 0.15.
Work on C38A U41A A56G A57G A64U U76C yielded a self-cleavage of 0.05.
Variant A35U U54C U74C U78C has a self-cleavage of 0.91.
Variant C38A C40A U69G U80A has a self-cleavage of 0.17.
In the case of A35G G73A C79U, the self-cleavage is reported as 1.31.
In the case of C39G U43C U51C U67C U69G U72C U76C, the self-cleavage is reported as 0.11.
Work on A35U U58G A64U yielded a self-cleavage of 0.1.
For A35U U48C A57G C59G U72C, the self-cleavage was 0.21.
